# Among all 310,000 compounds or so, about 14,000 (4.5%) showed an effect of 50% or more. The effect is printed as a negative number. Some of the results follow.
# Molecular target: human ether-à-go-go-related gene (hERG) potassium channel (human, UniProt Q12809)
# Test: primary screen, population patch clamp on CHO cells stably expressing hERG
# 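Note: peak tail current of the secondary pulse compared with the same well before compound.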
# human ether-à-go-go-related gene (hERG) potassium channel, sequence (Q12809 whole entry, looked up): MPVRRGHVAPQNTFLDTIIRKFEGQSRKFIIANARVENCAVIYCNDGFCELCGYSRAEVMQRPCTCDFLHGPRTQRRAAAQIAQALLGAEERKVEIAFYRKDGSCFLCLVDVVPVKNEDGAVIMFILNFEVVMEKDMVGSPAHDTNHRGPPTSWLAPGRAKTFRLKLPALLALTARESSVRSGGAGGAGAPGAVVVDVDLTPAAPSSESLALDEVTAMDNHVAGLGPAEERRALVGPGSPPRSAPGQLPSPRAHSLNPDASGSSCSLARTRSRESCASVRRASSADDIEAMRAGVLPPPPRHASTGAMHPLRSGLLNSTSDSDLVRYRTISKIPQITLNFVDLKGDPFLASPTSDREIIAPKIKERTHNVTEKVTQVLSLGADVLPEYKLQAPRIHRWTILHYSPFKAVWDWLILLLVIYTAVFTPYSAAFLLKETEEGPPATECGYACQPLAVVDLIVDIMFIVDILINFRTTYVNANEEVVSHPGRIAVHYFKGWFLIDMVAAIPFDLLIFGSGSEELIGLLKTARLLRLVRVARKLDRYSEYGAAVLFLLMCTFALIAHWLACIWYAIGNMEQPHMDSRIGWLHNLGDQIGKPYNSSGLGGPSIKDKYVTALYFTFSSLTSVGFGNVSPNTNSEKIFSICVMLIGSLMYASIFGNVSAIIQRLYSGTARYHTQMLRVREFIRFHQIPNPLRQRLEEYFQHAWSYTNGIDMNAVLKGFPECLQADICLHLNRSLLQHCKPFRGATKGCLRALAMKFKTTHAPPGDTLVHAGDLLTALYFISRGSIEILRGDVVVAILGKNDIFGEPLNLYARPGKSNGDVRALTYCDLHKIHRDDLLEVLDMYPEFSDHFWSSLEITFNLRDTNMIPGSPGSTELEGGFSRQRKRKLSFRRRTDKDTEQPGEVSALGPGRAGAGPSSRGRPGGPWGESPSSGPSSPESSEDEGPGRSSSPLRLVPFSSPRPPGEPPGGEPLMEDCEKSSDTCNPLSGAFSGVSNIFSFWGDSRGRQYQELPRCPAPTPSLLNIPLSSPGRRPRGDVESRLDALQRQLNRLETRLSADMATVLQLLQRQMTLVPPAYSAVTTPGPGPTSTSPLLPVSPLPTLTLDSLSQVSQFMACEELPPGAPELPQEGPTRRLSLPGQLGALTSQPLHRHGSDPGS
row,SMILES,"hERG current change (%, negative = inhibition) at 10uM"
1,O=C(Cn1cc([N+](=O)[O-])cn1)NCc1ccco1,-13.3%
2,O=C(NCc1ccccc1F)C1CCCN(S(=O)(=O)c2ccc(-n3cnnn3)cc2)C1 (centres unmarked),-1.94%
3,COc1cc(C(=O)Nc2ccc3c(c2)Cc2cc(NC(=O)c4cc(OC)c(OC)c(OC)c4)ccc2-3)cc(OC)c1OC,7.81%
4,CCOc1ccc2nc(-c3ccccc3)nc(SCC(=O)OC)c2c1,19.2%
5,CCOC(=O)N1CCN(S(=O)(=O)c2ccc(F)cc2)CC1,19.8%
6,CCCCn1c(CN2CCN(CCO)CC2)nc2ccccc21,-66%
7,CCNc1nnc(-c2ccc(C)cc2)o1,1.33%
8,O=C(Nc1ccc2c(c1)CCC2)c1cccc(S(=O)(=O)N2CCN(c3ccccc3)CC2)c1,-8.42%
9,Cc1cc(C)cc(OCC(O)CN2CCN(Cc3ccc4c(c3)OCO4)CC2)c1.Cl (centres unmarked),-76%
10,O=C(Nc1cc(S(=O)(=O)Nc2ccc(Cl)cc2)ccc1N1CCCCC1)c1ccc(F)cc1Cl,-2.91%
11,CCN(CC)CCn1c(=N)n(CC(O)c2ccc(OC)c(OC)c2)c2ccccc21.Cl (centres unmarked),14.4%
12,CCN(CC)c1nc2c(s1)C(=O)NCCC2,-13.2%
13,Cc1ccc(/C=C2\SC(=O)N(CCC(=O)N3CCN(C)CC3)C2=O)cc1,-19%
14,COc1ccc(-c2nc(CSCC(=O)NCCCN3CCCC3=O)c(C)o2)cc1,6.73%
15,COc1ccc(C(=O)CSc2nnc(COc3ccccc3)n2Cc2ccco2)cc1,-23.1%
16,C=CCn1c(Sc2ccccc2)nc2c1c(=O)[nH]c(=O)n2C,-7.4%
17,CCc1ccc(N2CC(C(=O)Nc3nc4ccc(S(C)(=O)=O)cc4s3)CC2=O)cc1 (centres unmarked),-29.1%
18,COc1ccc(CCNC(=O)COC(=O)c2ccc([N+](=O)[O-])o2)cc1,2.31%
19,CC(C)[C@H](NC(=O)c1ccc(F)cc1)C(=O)NC1=NCCS1,13.4%
20,COc1cccc(CN2CC(C(=O)N(C)Cc3[nH]c4ccccc4c3C)CCC2=O)c1 (centres unmarked),-20.5%
21,COCCNC(=O)c1nn2cccnc2c1Cl,-11.3%
22,CCCNC(=O)COc1coc(CN2CCN(c3cccc(Cl)c3)CC2)cc1=O,-25.7%

row,SMILES,"hERG current change (%, negative = inhibition) at 10uM"
1,O=C(NCCc1ccccn1)/C(=C/c1ccco1)NC(=O)c1ccccc1,22.3%
2,CCOC(=O)C1CCN(c2nc(C)nc3c2oc2ccccc23)CC1.Cl,-21.9%
3,Brc1ccc(Oc2ccc(Br)cc2Br)c(Br)c1,20.2%
4,COc1ccc(C(=O)N=C2SC3CS(=O)(=O)CC3N2Cc2ccc(F)cc2)cc1 (centres unmarked),11.7%
5,CC1=NN(C(N)=S)C(=O)C1N=Nc1cccc(Cl)c1C (centres unmarked),19.4%
6,COc1cc(OC)c(OC)cc1/C=N/n1c(C)nnc1C,23.1%
7,Cn1ccnc1SCC(=O)c1cccc(Br)c1,-0.753%
8,CCCCCC/C=N/Nc1nnc(Cc2ccccc2)c(=O)[nH]1,11.9%
9,Cc1cc(OCC(=O)N(C)C2CCCCC2)ccc1Cl,-1.71%
10,CCOc1ccc(CCNC(=O)C2CCC(=O)N2CCc2ccccc2)cc1OCC (centres unmarked),-2.76%
11,CCOC(=O)C(Cc1ccccc1)NC(=O)CCc1nnc2ccc(N3CCOCC3)nn12 (centres unmarked),11.7%
12,N#Cc1cccc(NS(=O)(=O)c2ccc(S(=O)(=O)N3CCOCC3)cc2)c1,-2.11%
13,CC(C)(C)SCCNS(=O)(=O)c1ccc(Cl)cc1,5.37%
14,CCN(CC)/C(=N\S(=O)(=O)c1ccccc1C)c1ccccc1,-9.32%
15,CC(C)CNc1nnnc2c1sc1nc(N3CCOCC3)c3c(c12)CCCC3,15.4%
16,COc1cc(NC(=O)c2ccccc2Cl)c(OC)cc1NC(=O)CN1CCOCC1,-3.34%
17,CC(=O)NC1C(Oc2ccc(C)cc2)OC2COC(c3ccco3)OC2C1O (centres unmarked),14.7%
18,CCN(Cc1ccccc1)C(=O)CSc1nc(C)cc2c1C(=O)OC2,-3.11%
19,CCOc1cc(/C=N/NC(=O)c2cc(-c3ccccc3)nc3ccccc23)ccc1O,15.8%
20,Cc1ccnn1CC(=O)N/N=C/c1cn[nH]c1-c1ccccc1,13.1%
21,COc1ccc(C2=NNC(c3ccco3)=Nc3ccc(F)cc32)cc1,-10.8%
22,COc1ccc(NC(=O)c2nc[nH]c2C(=O)N[C@@H](CC(C)C)C(=O)OC(C)(C)C)cc1,18.4%

# Reference: article PMC4336329 (PLoS ONE, 2015)
